# Source: PMC7819943, “Rice protein-binding microarrays: a tool to detect cis-acting elements near promoter regions in rice”
# Some of the results follow.
# Target: T1, OsWOX13 (Oryza sativa, UniProt Q5QMM3 1-267)
# T1 sequence: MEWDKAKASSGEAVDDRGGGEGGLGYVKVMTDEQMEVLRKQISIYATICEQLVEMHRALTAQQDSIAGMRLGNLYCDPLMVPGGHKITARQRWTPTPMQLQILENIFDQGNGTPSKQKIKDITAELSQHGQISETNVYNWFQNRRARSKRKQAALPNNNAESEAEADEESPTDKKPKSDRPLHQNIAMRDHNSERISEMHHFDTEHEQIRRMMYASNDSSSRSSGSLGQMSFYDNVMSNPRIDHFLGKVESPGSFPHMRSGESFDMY
# Assay: protein-binding microarray (RPBM); PBS, 2% BSA, 51.3 ng/ul salmon testes DNA, 50 uM zinc acetate, 200 nM TF, 25 C, 1 h; high values mean tight binding
# Details: protein: recombinant; tags: N-terminal polyhistidine and DsRed monomer fusion (pET32a); label: CyDye5-dUTP incorporated in the synthesized complementary strand; 3' TTTTT single-stranded linker to array surface; dsDNA, one strand shown
# Summary of the method: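 Binding signal is defined as the fluorescence intensity of each feature in arbitrary units, read on an Axon 4000B scanner. Transcription factors with N-terminal polyhistidine and DsRed fusions came from E. coli BL21-CodonPlus and were purified on Ni–NTA. They were incubated at 200 nM for 1 h at 25 °C on a custom Agilent array that had been made double-stranded with Cy5-dUTP, with 50 µM zinc acetate present, and the array was washed.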
row,Sequence,binding signal
1,ATGCATGATTTGATAAGAGAGTTCTCAGTTGCTGTTTCTTCGGAGTCACCTAGTGCAG,15600 fluorescence intensity (a.u.)
2,AAACTTTTGATTTATAAACTTTTGGTCTCTAAACTTTAGACGGAGTCACCTAGTGCAG,6990 fluorescence intensity (a.u.)
3,GCATCAATAACACCAAGATGACACAAAATGCACACCATGTCGGAGTCACCTAGTGCAG,4170 fluorescence intensity (a.u.)
4,TCAAATTTATTGTCAGATGTAAACAAAGCCAAAATTATGTCGGAGTCACCTAGTGCAG,4230 fluorescence intensity (a.u.)
5,TCAGATTGATGGCCATACCATTATTTGGTTGATAATTACGCGGAGTCACCTAGTGCAG,32000 fluorescence intensity (a.u.)
6,TGTGAAATAAATTATTTAATTACTACATGGAAATAAAGTTCGGAGTCACCTAGTGCAG,11500 fluorescence intensity (a.u.)
7,ATTCAAATTTGTCAAACATTGTTTTCTTCTCTTTCATATCCGGAGTCACCTAGTGCAG,5020 fluorescence intensity (a.u.)
8,GAGCTGTTGGGAGGCCGTGCTGGTACCGGAGAGGAGAGGGCGGAGTCACCTAGTGCAG,4760 fluorescence intensity (a.u.)
9,TCCCGGCCGGCCTGATTGGGTTATCTTATCCTCAGTCCTGCGGAGTCACCTAGTGCAG,5930 fluorescence intensity (a.u.)
10,GTAACAAATTAGCAATCCTCATATACTACTACTAAAGATTCGGAGTCACCTAGTGCAG,14800 fluorescence intensity (a.u.)
11,TAATTACCTAGATTGTGTGTAAATTGCGAGACGAATATTTCGGAGTCACCTAGTGCAG,4920 fluorescence intensity (a.u.)
12,TTATCAATCTAGGAGAGAGATTTCGCAGGCACGGAATTAGCGGAGTCACCTAGTGCAG,9560 fluorescence intensity (a.u.)
13,TTTAAATGAATGGCAGGAAAATCTGACTTGGTAGTCCTGACGGAGTCACCTAGTGCAG,4910 fluorescence intensity (a.u.)
14,ATAGATAGATAGATAGATAGATAGATTGATCGATCGATCGCGGAGTCACCTAGTGCAG,55400 fluorescence intensity (a.u.)
15,TCGCTAATTAACAAGTCGGTCAACTCCAAGTTAACTTGCTCGGAGTCACCTAGTGCAG,26200 fluorescence intensity (a.u.)
16,ATGATTGTCTATTCCTCTGTCCAGGAGAGAACAGAGTATTCGGAGTCACCTAGTGCAG,22100 fluorescence intensity (a.u.)
17,ATAGTGATTTAAAATTTTAAATTTCATCTAAAGCAAGAAACGGAGTCACCTAGTGCAG,16900 fluorescence intensity (a.u.)
18,AATAATTCCATTGAATTTACACACTTACATTATAGTGCCTCGGAGTCACCTAGTGCAG,3370 fluorescence intensity (a.u.)
19,ATTGTCTTGATTATAACCTCCGAGAGATATGATGTTGCAACGGAGTCACCTAGTGCAG,8440 fluorescence intensity (a.u.)
20,ACTCCAATTAGAAAGACATTTATTTATATCCGTTATGTAACGGAGTCACCTAGTGCAG,10900 fluorescence intensity (a.u.)
21,TGCACCTAATTGTATCCACCTGCCAAGTTCTTATACAGCCCGGAGTCACCTAGTGCAG,6280 fluorescence intensity (a.u.)
22,TAGATTGATTGTTACTCCGTACATAACCTTGTCTTCTTCGCGGAGTCACCTAGTGCAG,55400 fluorescence intensity (a.u.)
23,ACTGATAGCTAAATACAGTGACATATATTAACTATTTCTTCGGAGTCACCTAGTGCAG,4970 fluorescence intensity (a.u.)
24,GTATGGATTGAAGGTAACGTAGCATTTGCCTTCACCACAACGGAGTCACCTAGTGCAG,5030 fluorescence intensity (a.u.)
25,ATTGCAATAATTATTCTTCTCTTTAGCAGCTACCCCTTCACGGAGTCACCTAGTGCAG,7430 fluorescence intensity (a.u.)
26,GACGAATTACTTGTTTAAACGAAACGGATTGGGGTTTTCTCGGAGTCACCTAGTGCAG,3940 fluorescence intensity (a.u.)
27,ATAACAGAATGGATGACGTAAGCTGCACACGCGGCACTAGCGGAGTCACCTAGTGCAG,3930 fluorescence intensity (a.u.)

row,Sequence,binding signal
1,TTTGATAGGCATATTTCAATCCAACAACTTATCATCTTAACGGAGTCACCTAGTGCAG,13200 fluorescence intensity (a.u.)
2,ACCAATTGCTGATGATCTGAGAATAATTCCATTCCAAAATCGGAGTCACCTAGTGCAG,3430 fluorescence intensity (a.u.)
3,ATAAAATTACAATGTCATAATTAATATAAATCCAATGACACGGAGTCACCTAGTGCAG,14400 fluorescence intensity (a.u.)
4,CATGTGCGATATGATTATCTAAACTCTATCGAACGTGCCACGGAGTCACCTAGTGCAG,3350 fluorescence intensity (a.u.)
5,TCGCCATGGATGGTGATTGGTCATGGACTCGCGGTTCGGGCGGAGTCACCTAGTGCAG,5640 fluorescence intensity (a.u.)
6,GGAAATTTATATCCTTTACGGCGAATGTGATTTCTCATTTCGGAGTCACCTAGTGCAG,3410 fluorescence intensity (a.u.)
7,AATTGATTATCCGAGAAGCAATGAGCAGAACGTTCATGTACGGAGTCACCTAGTGCAG,33400 fluorescence intensity (a.u.)
8,AAAAGTAATTAAGTTGTCCACCTGACCAATCTGAACTTGCCGGAGTCACCTAGTGCAG,3680 fluorescence intensity (a.u.)
9,TTTGACTTTGACAGGGCACAAACAATTAATCTGAATGTTTCGGAGTCACCTAGTGCAG,10500 fluorescence intensity (a.u.)
10,TTAGATTGGGGTGCGACACTTAAGGATTATAAAATCACAGCGGAGTCACCTAGTGCAG,22600 fluorescence intensity (a.u.)
11,TGGAATAATTAAAACTCAATTAATCACAGGTTATTATAACCGGAGTCACCTAGTGCAG,5980 fluorescence intensity (a.u.)
12,CCAAGTTTCCATCAATCAATCAATGAGATTTAATTTATGCCGGAGTCACCTAGTGCAG,26500 fluorescence intensity (a.u.)
13,AATTTAATCGCGATAGATTGGTTTAACTCTAATCCGGGAGCGGAGTCACCTAGTGCAG,36700 fluorescence intensity (a.u.)
14,AGAAGAAAATCACAACGTTGACTGAAGAGGGAAACACCAACGGAGTCACCTAGTGCAG,3590 fluorescence intensity (a.u.)
15,TCCAAACTGTCAATAATGTTCTGGGTCGCCAAGAACATCACGGAGTCACCTAGTGCAG,18500 fluorescence intensity (a.u.)
16,TCCAAAATGGCTACATGATTGACAAGCTACATAGTAACAACGGAGTCACCTAGTGCAG,27900 fluorescence intensity (a.u.)
17,ACTAAACTCTGTTAATTTCAACATCACTACCAAACAAGAACGGAGTCACCTAGTGCAG,11600 fluorescence intensity (a.u.)
18,CCTGTTGATTGGATATCTGGAACCTGAAATCCTGAATACGCGGAGTCACCTAGTGCAG,55800 fluorescence intensity (a.u.)
19,CTCGATTTTAACAGATTAATTAAACAGCGCTATGCAGACACGGAGTCACCTAGTGCAG,29100 fluorescence intensity (a.u.)
20,ATGTATTAGAATGATTATTTGATCTCAAGTTGTACATCAGCGGAGTCACCTAGTGCAG,5680 fluorescence intensity (a.u.)
21,AATTTATTAAGCCTAATTAACTTGTCATTAGTAAATGTTTCGGAGTCACCTAGTGCAG,9770 fluorescence intensity (a.u.)
22,AAGTAACTGCTCATTACTCAATCAGTCAAAGTTGAGCAACCGGAGTCACCTAGTGCAG,22900 fluorescence intensity (a.u.)
23,ACGATGATGCAATCATCATAAATATATTCCAAGCATTAGACGGAGTCACCTAGTGCAG,4320 fluorescence intensity (a.u.)
24,TTGTTGATTATGTTTAGCCATGTGGCTTTAAAGTGGGGTCCGGAGTCACCTAGTGCAG,32100 fluorescence intensity (a.u.)
25,AATTGGCTATAGATGATTTGTAACTAGTAGTTGGCTATACCGGAGTCACCTAGTGCAG,4320 fluorescence intensity (a.u.)
26,TGTGTGATACAATCATCTCTATAATTGCCTCTAGGGCATACGGAGTCACCTAGTGCAG,10800 fluorescence intensity (a.u.)
27,GGTACGTTAATTAATTACTCGCAAATAAATATCTAAGTAGCGGAGTCACCTAGTGCAG,45200 fluorescence intensity (a.u.)
